Laboratory results published in the RNAGym collection of RNA variant scans (doi:10.1073/pnas.2313332121).
This sample is rich in variants without activity.

B1: TPR 5TU (parent)
chain: GGAUCUUCUCGAUCUAACAAAAAAGACAAAUCUGCCACAAAGCUUGAGAGCAUCUUCGGAUGCAGAGGCGGCAGCCUUCGGUGGCGCGAUAGCGCCAACGUUCUCAACUAUGACACGCAAAACGCGUGCUCCGUUGAAUGGAGUUUAUCAUG

Variants of: B1
Assay: polymerase ribozyme fitness, log enrichment relative to wild type (log ratio); higher = more active; in vitro selection for triplet polymerase activity
In short: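 After PCR construction and transcription, each subunit's mutant library from a heterodimeric triplet polymerase ribozyme was annealed with a biotinylated primer, the partner subunit and triplets. Incubation was frozen, at −7 °C, and extended constructs were gel-excised, bound to streptavidin beads and amplified by RT-PCR, in one selection round done in triplicate. Fitness is the logarithm of a genotype's enrichment divided by that of the wild type, from inverse-variance-weighted replicate averages of Illumina-sequenced inputs and outputs. The base of the logarithm is 2, and genotypes needed ≥10 input reads and ≥1 read per output.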

Polymerase ribozyme fitness (log ratio), ≤ -4.2:
GGAUCUUCUGGAUCUAGCAAAAAAGACAAAUCUGCCACAAAGCUUGAGAGCAUCUUUGGAAGCAGAGGCGGCAGCCUUCUGUGGCGCGAUAGCGCCAACGUUCUCAACUAUGACACGCAAAACGCGGGCUCCGUUGAAUGGAGUUUAUCAUG
GGAUCUUCUAGAUCUAACAAAAAAGACAAACCUGCCACAAAGCUUAAGAGCAUCUUCGGAUGCAGAGGGGGCAGCCUUCAGAGGCACGAUAGCGCCAAUUUUCUCAACUAUGACACGCAAAACGCGUGCUCCGUUGAAUGAAGUUUAUCAUG
GGAUCUUCUAGAUCGAACAAAAAAGACAAAUCUGCCACAAAGCUUGAGAGCAUCUUCAGAUGCAGAGGCGGCAGCCUUCGGUGGCUCGAUAGCGCCAGCGUUCUCAACUAUGACACGCAAAACGCGUGCUCCGUUGAUUGGAGUUUAUCAUG
GGAUCUUCUGGAUCUUACAAAAAAGACAAAUCUGCCACAAAGCUUGAGAGCAUCUUCGGAUGCAGAGGCGGCAGCCUUCGGUGGCGCGAUAGAGCCAACGUUCUCAACUAUGACACGCAAAACGCGUGCUCCGUUGAAUGCAGUUUAUCGUG
GGAUCUUCUGGAUCUAACUAAAAAGACAAAUCGGCCACAAAGCUUGAGAGCAUCUUCGGAUGCAGAGGCGGCAGCCUUCGGUGGCACGAUAGCGCCAACGUUCUCAACUAUGACACGCAAAACGCGUGCUCCGUUGAAUGGAGUUUAUCAUG
GGAUCUUCUAGAUCUAACAAAAAAGACAAAUCUGCCACAAAGCUUGACAGUACCUUCGGAUGCAGAGGCGGCAGCCUUCGGUGGCGCGAUACCGCCAACGUUCUUAACUAUGAAACGCAGAACGCGUGCUCCGUUGAAUGGAGUUUAUCAUG
GGAUCUUCUAGAUCUAACAAAAAAGACAAAUCUGCCACAAAGCUUGAGAGCAUCUUCGGAUGCAGAGGCGGCAGCCUUCGGUGGCGCGAUAGCGCCAACAUUCUCAAGUAUGACACGCAAAACGCGUGGUCCGUUGAAUGGAGUUUAUCAUG
GGAUCUUCUAGAUCUAACAAAAAAGACAAAUCUGCCACAAAGCUUGAGAACAUCUUCGGGUGCAGAGGCGGCAGCCUUCGGUGGCACGAUAGCGCCAACGUUCUCAACUAUGACACGCAAAACGCGUGCUCCCUUGAAUGGAGUUUAUCAUG
GGAUCUUCUGGAUCUAUCAAAAAAGACAAAUCUGCCCCAAAGCUUGAGAGCAUCUUCGCAUGCAGAGGCGGCAGCCUUCGGUGGAGCGAUAGCGCCAACGUUCUCAACUAUGACACGCAAAACGCGUGCUCCGUUGAAUGGAGUUUAUCAUG
GGAUCUUCUAGAUCAAACAAAAUAGACAAAUCUGCCACAAAACUUGAGAGCAUCUUCGGAUGCAGAGGCGGCAGCCUUCGGUGGCGCGAUAGCGCCAACGUUCUCAACUAUGACACGCAAAACGCGUGCUCCUUUGAAUGGAGUUUAGCAUG
GGAUCUUCUAGAUCUAACAAAAAAGACAAAUCUGCCACAAAGCUUGAGAGCAUCUUCGGAUGCAGAGGCGGCAGCCUUCGGUGUCGCGAUAGCGCCAACGUUCUCAACUAUGACACGCAAAACGCGUGCUCCGUUGAAUGGAGUUUAUCAUG
GGAUCUUCUGGGUCUAACAAAAAAGACAAAUCUGCCACAAAGCUUGAGAGCAUCUUCGGAUGCAGAGGCGGCAGCCUUCGGUGGCGCGAUAGCGCCAACGUUCUCAACUAUGACACGCAUAACGCGUGCUCCGUCGAAUGGAGUUUAUCAUG
GGAUCUUCUAGAUCUAACAAAAAAGACAAAUCUGCCACAAAGCUUGAGAGCAUCUUCGGAUGCAGAGGCGGCAGCCUUCGGUGGCGCGAUAACGCCAACGUUCUCAACUAUGACACGCAAAACUCGUGCUCCGUUGAAUGGAGUUAAUCAUG
GGAUCUUCUAGAUCUAACAAAAAAGACAAACCUGCCACAAAGCUUGAGAGCAUCUUCGGAAGCAGAGGCGGCAGCCUUCGGUGGCGCGAUAGCGCCAACGUUCUCAACUAUGACACGCAAAACGCGUGCUCCGUUGAAUGGAGUUUAUCAUG
GGAUCUUCUGGAUCUACCAAAAAAGACAAAUCUGCUACAAAGCUUGAAAGCAUCUUCGGAUGCUGAGGCGGCAGCCUUCGGUGGCGCCAUAGCGCCAACGUUCUCAACUAUGACACGGAAAACGCGUGCUCCGUUGAAUGGAGUUUAUCAUG
GGAUCUUCUAGAGCUAACAAAUAAGACAAAUCUGCCACAAAGCUUGAGAGCAUCUUCGGAUGCAGAGGCGGCAGCCUUCGGUGGCGCGAUAGCGCCAACGUUCUCAACUAUGCCACGCAAAACGCGUGCUCCGUUGAAUGGAGUUGAUCAUG
GGAUCUUCUGGUUCUAACAAAGAAGACAAAUCUGGCACAAAGCUUGAGAGCAUCUUCGGAUGCAGAGGCGGCAGCCUUCGGUGGCGCGAUAGCAUCAAAGUUCUCAACUACGACACGCAAAACGCGUGCUCCGUUGAAUGGAGUUUAUCAUG
GGAUCUUCUAGAUCUAACAAAAAAGACAAAUCUGCCACAAAGCUUGAGAGCAUCUCCGGAUGCAGAGGCGGCAGCCUUCCCUGGCGCGAUAGGGCCAACGUUCUCAACUAUGACACGCAAAACUCGUGCUCGGUUGAAUGGAGUUUAUCAUG
GGAUCUUCUAGAUCUAACAAAAAAGACAAAUCUGCCACAAAGCAUGAGAGCAUCUUCGGAUGCAGAGGCGGCAGCCUUCGGUGGGGCGAUAGCGCCAACGUUCUCAUCUAUGACACGCAAAACGCGUGCUCCGUUGAAUGGAGUUUAUCAUG
GGAUCUUCUGGAUCUCACAAAAAAGACCAAUCUGCCACAAAGCUUGAGAGCAUCUUCGGAUGCAGAGGCGGCAGCCUUCGGUGGCGCGAUAGCGCCAACGUUCUCAACUAUGACACGCAAAACGGGUGCUCCGUUGAAUGGAGUUUAUCAUG
GGAUCUUCUGGAUCUAACCAAAAAGACAAAUCUGCCACAAGGCUUUAGAGCAUCUUCGGAUGCAGAGGCGGCAGCCUUCGGUGGCGCGAUAGCGGUAACGUUCUCAACUAUGACACGCAAAACGCGUGCUCCGUUGAAUGGAGUUUAUCAUG
GGAUCUUCUAGAGCUAACAAAAAACACAAAUCUUCCACAAAGCUUGAGAGCAUCUUCGGAAGUAGAGCCGGCAGCCCUAGGUGGCACGAUAGCGCCAACGUUCUCAACUAUGACACGCAAAACGCGUGCUCCGUUGAAUGGAGUUUAUCAUG
GGAUCUUCUAGAUCUAACAAAAAAGACAAAUCUGCCACAAAGCUUGAGAGCAUCUUCGGAUGCAGAGGCGGCAGCCUUCGGUGGCGCAAUAGCGCCAACGUUCUCAACUAUGACACGCAAAACGCGUGCUCCGUUGAAUGGAGUUUAUCAUG
GGAUCUUCUGGAUCUACCAAAAAAGACAAAUCUGCCACAAAGCUUGAGAGUAUCUUCGGAUGCAGAGGCGGCAGCCUUCGGUGGCACGAUAGCGCCAACGUUCUCAACUAUGACACGCAAAACGCGUGCUCCGUUGAAUGGAGUUUAUCAUG
GGAUCUUCUAGAUCUAACAAAAAAGACAAAUCUGCCACAAAGCUUGAGAGCAUCUUCGGAUGCAGAGGCGGCAGCCUUCGGUGGCGCUAUAGCGACAACGUUCUCAACUAUGACACGCAAAACGCGUGCUCCGAUGAAUGGAGUUUAUCAUG
GGAUCUUCUAGAUCUAACAAAAAAGACAAAUCUGCCACAAAGCUUGAGAGCAUCAUCGGGUGCAGAGGAGGCAGCCUUCGGUGGCGCGAUAGCGCUAACGUUCUCAACUAUGACACGCAAAACGCGUGCUCCGUUGAAUGGAGUUUAUCAUG
GGAUCUUCUGGAUCUCACAAAAAAGACAAAUCUGCCACAAAGCUUGAGAGCAUCUGCGGAUGCAGAGGCGGCAGCCUUCGGUGGCGCGAUAGCGCCAACAUUCUCAACUAUGACACGCAAAACGCGUGCUCCGUUGAAUGGAGUUUAUCAUG
GGAUCUUCUAGAUCUAACAAAAAAGACAAAUCUGCCACAAAGCUUGAGAGCAUCUUCGGAUACAGAGGCGGCAGCCUUCGGUGGCGCGAUAGCGCCAACGUUCUCAACUAUGACACGCAAAACGCGUGCUCCGUUGAAUGGAGUUUAUCAUG
GGAUCUUCUGGAUCUAACUAAAAAGACAAAUCUGCCACAAAGCUUGAGAGCAUCUUCGGAUGCAGAGGCGGCAGCCUUCGGUGGGGCGAUGGCGCCAACGUUCUCAACUAUGACACGCAAAACGCGUGCUCCGUUGAAUGGAGUUUAACAUG
GGAUCUUCUAGAUCUAACAAAAAAGACAAAUCUGCCACAAAGCUUGAGAGCAUCUACGGAUGCAGAGGCGGCAGCUUUCGGUGGCGAGAUAGCGCCAACGUUCUCAACUAUGACACGCAAAACGCGUGCUCCGUUGAGUGGAGUUUAUCAUG
GGAUCUUCUAGACCUAACAAAAAAGACAACUCUGCCACAAAGCUUGAGAGCAUCUUCGGAUGCAGAGGCGGCAGCCUUCGGUAGCGCAAUAGCGCCAUCGUUCUCAACUAUGACACGCAAAACGAGUGCUCCGUUGAAUGGAGUUUGUCAUG
GGAUCUUCUAGAUCUAACAAAAAAGACAAAUCAGCCACAAAGCUUGAGAGCAUCUUCGGAUGCAGAGGCGGCAGCCUGCGGUGGCGCGAAAGCGCCAACGUUCUCAACUAUGACACGCAAAACGCGUGCUCCGUUGAAUAGAGUUUAUCAUG
GGAUCUUCUAGAUCUAACAAAAAAGACAAAUCUGCCACAAAGCUUGAGAGCAUCUUCGGAUCCAGAGACGGCAGCCUUCGGGGGCGCGAUAGAGCCGACGUUCUCAACUAUGACACGAAAAACGCGUGCUCCGUUGAAUGGAUUUUAUCAUG
GGAUCUUCUGGAUCUUACAAAAAAGACAAAUCUGCCACAAAGCUUGAAAGCAUCUUCGGAUGCAGAGGGGGCAGCCUUCGGUGGCGCGAUAGCGCCAACGUUCUCAACCUUGACACGCAAAACGCGUGCUCCGUUGAAUGGAGUUUAUCAUG
GGAUCUUCUAGAUCUAACAAAAAAGACAAAUCUGCCACAAAGCUUGAGAGCAUCAUCGGAUGCAGAGGCGGCAGCCUUCGGUGGCUCGAUUGCGCCAACGUUCUCAACUAUGACACGCAAAACGCGUGCUCCGUUGAAUGGAGUUUAUCAUG
GGAUCUUCUGGAUCUUACAAAAAAGACAAAUCUGCCACAAAGCUUGAGAGCAUUUACGAAUGCAGAGGCGGCAGCCUUCGGUGGCGCCAUAGCGCCAACGUUCUGAACUGUGACACGCUAAAAGCGUGCUCCGUUGAAUGGAGUGUACCAUG
GGAUCUUCUGGAUCUUACAAUAAAGACAAAUCUGCCACAAAGCUUGAGAGCAUUUUCGGUUGCAGAGGCGGCAGCCUUCGGUGGCGCGAUAGCGCCAACGUUCUCAACUAUGACACGCAAAACGCGUGCUCCGUUGAAUGCAGUUUAUCAUG
GGAUCUUCUGGAUCUAACGAAAAAGACAAAUCUGCCACAAAGCUUGACAGCAUCUUCGGAUGCAGAGGCGGCAGCCUUCGGUGGCGAGAUAGCGCCAGUGUUAUCAACUAUGAUACGCAAAACGCGUGCUCCUUUGAAUGGAGUUUAUCAUG
